Assay results from the supplement of paper PMC11417369.
± gives the standard deviation of the averaged measurements. The list shows a part of the results.

Each sequence was assayed on PfAP2-LT AP2 domain (GST-tagged) (assay: gcPBM binding intensity (ln(normalized median fluorescence intensity)); higher = stronger DNA binding).
How it was run: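 For binding intensity, the highest Masliner-normalised natural-log median intensity across replicate spots of either probe orientation was taken. Protein bound to the array was stained with Alexa488 anti-GST antibody and scanned at 488 nm. The protein, GST-tagged P. falciparum DNA-binding domains from E. coli at about 25 μg on average, had been applied for 1 h to an Agilent 4 × 180k array of primer-extended double-stranded 36-bp intergenic genomic probes and negative controls.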

Sequence	gcPBM binding intensity (ln)
CACCCACCCACATACACACACATACACATATATATA [CACACA_site1722]	10 ± 0.22
GCACGTGTGATTAGATGTACATAACATGTATATGTC [XGTACX_site4632]	9.09 ± 0.49
TTTTTATGTTCTATATATATATATATATATATATAT [GTGCAC_negctrl_site306]	9.39 ± 0.26
CATAATATATATTGAGCATGCTACTATTGTTAGAAA [TGCATGCA_site740]	8.89 ± 0.45
AAAAAAAAAAACTACACACATACAAATATTTATATA [CACACA_site2574]	9.04 ± 0.41
ACATATAAGATATATACACACATATAAATACATTAA [CACACA_site7763]	9.13 ± 0.39
AAAAAAAAAAAAAAAACACACATACACCCAGACACA [CACACA_site5807]	9.71 ± 0.18
ATACATATATAAATATGTACACACATATGTATGATC [XGTACX_site8219]	9.26 ± 0.33
GGAAACCCTCCCAAATGTACTTTTATAAAAAAATAC [XGTACX_site5502]	8.66 ± 0.18
TATACTCAGAAACACACACACACACCCAAAAAAAAA [CACACA_site4434]	10.1 ± 0.35
ATATAAGTACATATAACACACATATATTATAAGTAT [CACACA_site2647]	9.16 ± 0.35
TTTGCCATAAAACACACACACATGTAAACCCCCTTT [CACACA_site1646]	9.76 ± 0.2
TTTTTATTTTTTGTCTGTACATATATAAATTTATTA [XGTACX_site1525]	8.73 ± 0.49
GATATAAGGGTATGAAGTACATAAATATTTTATGCT [XGTACX_site1886]	8.86 ± 0.43
TATGCACGCGAACACACACACACAACTAAAAAATAA [CACACA_site7251]	9.79 ± 0.37
ATGTAAGTATAAAATGTGCGCATTGGGAATGAGGAC	9.6 ± 0.38
ATGAATTAACCTAATCGTACAATAAATATTATTATA [XGTACX_site596]	8.59 ± 0.5
ATATATATATATGTATGTATATATATATGTTTGATT [XGTACX_negctrl_site62]	9.31 ± 0.37
ACTATTTAAAAATATGGTACACGAAATTCAAGAGAA [XGTACX_site5903]	8.73 ± 0.36
AAGTTTTATATTTATTAAATTTTTTTTTTTCCTTTT [XGTACX_negctrl_site184]	8.31 ± 0.58
ATATGTTTAAAAATATGTACGTATTATATATTCTAT [XGTACX_site1358]	8.81 ± 0.45
TTTTTTATTTTGTTGAAGCAATGAAAATGAATGAAA [TGCATGCA_negctrl_site495]	8.07 ± 0.26

Sequence	gcPBM binding intensity (ln)
TTGTTTATGTGAGAAGTGCATTTTTTCGTTCATGTA	8.77 ± 0.47
TACGCGAAATGAATATGTACATATATGAGGGCATAT [XGTACX_site4293]	9.12 ± 0.43
TAATATATAAATATATGTACATAATAAATAGGATAT [XGTACX_site3661]	8.99 ± 0.45
TTTATATAAGGACATGCATGCTATTATTAAATATAT [TGCATGCA_site1011]	8.83 ± 0.42
ACTTCATAGGTTACCTGTACATATAAGGAGTTATCA [XGTACX_site4110]	8.68 ± 0.35
ATATATACATATAATTGTACTTGTGTTGTTTTTCTT [XGTACX_site1870]	9.21 ± 0.41
TTAACGCTTATTTTTTGTACTTATTTTATTTTAAAT [XGTACX_site3977]	8.79 ± 0.4
CAACATTAATATAAAGCACACATATATATAATATAT [CACACA_site8064]	8.98 ± 0.46
ACTCTATAATAAAATACACACAAGACTATCTAATAT [CACACA_site1796]	9.03 ± 0.35
TCTTTTTTTTTTTTTTTTTTTTTTTTTTTTTTTTTT [GTGCAC_negctrl_site18]	8.63 ± 0.18
ATTTTAATGACATATACACACAAAGGTTCATAACAA [CACACA_site5664]	8.96 ± 0.3
TTTTCTTTTTAAATTACACACACATATATATATGTA [CACACA_site9172]	9.21 ± 0.3
ATAAAACCAACATAGAGTACAGATCGACTATGTTTC [XGTACX_site4329]	9.05 ± 0.47
TGTAGATATTATATATGTACGCATATGAAATATATA [XGTACX_site1586]	8.7 ± 0.38
AAAATATATAATATAACACACATATATTCTATATGG [CACACA_site4044]	8.86 ± 0.4
TTCAAAATATATATTTGTACATATAGGATCTTTTTC [XGTACX_site4500]	8.63 ± 0.42
TAATTATATAAATATTGTACAAAAAAAATATATATA [XGTACX_site3137]	8.64 ± 0.45
GTAATATCAATATAAAGTACACACTATAGTATGTAT [XGTACX_site4714]	9.05 ± 0.37
TATATTCTTTTAAACAGTACACACACACATATATAT [XGTACX_site1701]	9.64 ± 0.47
AATATAAAAATATAAAAACACACGTAAAAAAATTTA [CACACA_site3399]	8.86 ± 0.52
AAAAAAATTAAAAATAAAGAAAAAAAAAAAAAAAAA [GTGCAC_negctrl_site401]	8.38 ± 0.42
TTTTTTTTTTTGAGGAGGACACAAAAATATGCTACC [XGTACX_site756]	8.55 ± 0.39
